Experimental data reported in publication PMC4336329 (PLoS ONE, 2015).
Among all 310,000 compounds or so, about 14,000 (4.5%) showed an effect of 50% or more. Effects have a minus sign here. The list shows a part of the results.

Biological target: human ether-à-go-go-related gene (hERG) potassium channel (human, UniProt Q12809)
Test: primary screen, population patch clamp on CHO cells stably expressing hERG
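Also: peak tail current of the secondary pulse compared with the same well before compound.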

Sequence of human ether-à-go-go-related gene (hERG) potassium channel (Q12809 whole entry, looked up): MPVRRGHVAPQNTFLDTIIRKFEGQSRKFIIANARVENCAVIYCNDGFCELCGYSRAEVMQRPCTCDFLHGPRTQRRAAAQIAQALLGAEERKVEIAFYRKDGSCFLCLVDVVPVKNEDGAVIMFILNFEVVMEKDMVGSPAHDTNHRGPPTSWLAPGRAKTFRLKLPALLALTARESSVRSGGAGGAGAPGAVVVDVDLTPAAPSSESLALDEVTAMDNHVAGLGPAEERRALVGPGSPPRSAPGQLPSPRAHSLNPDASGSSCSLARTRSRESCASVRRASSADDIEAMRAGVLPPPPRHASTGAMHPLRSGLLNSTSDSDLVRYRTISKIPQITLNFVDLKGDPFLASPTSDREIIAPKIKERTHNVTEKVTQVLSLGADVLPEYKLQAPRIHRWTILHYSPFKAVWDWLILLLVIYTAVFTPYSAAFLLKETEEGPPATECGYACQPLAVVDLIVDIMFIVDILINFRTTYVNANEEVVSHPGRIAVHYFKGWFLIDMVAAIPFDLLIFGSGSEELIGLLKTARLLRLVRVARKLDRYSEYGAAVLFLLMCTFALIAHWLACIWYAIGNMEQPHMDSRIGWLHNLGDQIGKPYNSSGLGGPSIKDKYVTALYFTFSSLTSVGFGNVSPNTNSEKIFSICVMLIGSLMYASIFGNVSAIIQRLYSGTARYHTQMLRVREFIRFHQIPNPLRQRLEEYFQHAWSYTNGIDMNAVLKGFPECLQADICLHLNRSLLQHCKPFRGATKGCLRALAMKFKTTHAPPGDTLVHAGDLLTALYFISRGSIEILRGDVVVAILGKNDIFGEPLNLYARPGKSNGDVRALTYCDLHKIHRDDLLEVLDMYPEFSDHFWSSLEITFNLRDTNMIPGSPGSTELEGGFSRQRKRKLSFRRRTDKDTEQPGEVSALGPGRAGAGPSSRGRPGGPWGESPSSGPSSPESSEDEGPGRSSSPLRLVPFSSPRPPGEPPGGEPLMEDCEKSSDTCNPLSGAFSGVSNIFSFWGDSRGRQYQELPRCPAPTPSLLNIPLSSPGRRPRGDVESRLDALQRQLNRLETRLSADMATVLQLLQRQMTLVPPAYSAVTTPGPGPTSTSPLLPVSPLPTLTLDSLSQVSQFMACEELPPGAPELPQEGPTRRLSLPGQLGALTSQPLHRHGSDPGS

Row | Compound | hERG current change (%, negative = inhibition) at 10uM [%]
1 | CC(=O)c1cccc(NC(=O)C2=CC(c3cccs3)=NS(=O)(=O)N2C)c1 | 10.9
2 | CC(C)(CNC(=O)c1cc2ccccc2o1)N1CCOCC1 | -4.05
3 | COc1ccc(NC(=O)CS(=O)c2ccccc2Cl)cc1 (centres unmarked) | 18
4 | CC(C)c1ccccc1NC(=O)c1ccco1 | -13.2
5 | COc1ccc(NC(=O)C2CCCN(S(C)(=O)=O)C2)cc1OC (centres unmarked) | 8.63
6 | CCCn1cc(S(=O)(=O)c2ccccc2)c(=O)c2cc(OCC)ccc21 | -33.6
7 | CCOC(=O)C(CCSC)Nc1nc(Cl)nc(Nc2ccc(Cl)cc2)n1 (centres unmarked) | 10.7
8 | O=CNCCCc1nc2ccccc2n1Cc1ccccc1 | -28.6
9 | CC1(C)CC(NC(=O)c2ccc(Br)o2)CC(C)(C)N1 | 14.7
10 | CC(=O)N(C)c1ccc(NC(=S)NC(=O)/C=C/c2ccco2)cc1 | 5.11
11 | CC(C)(C)C(=O)/C(=C\c1ccc([N+](=O)[O-])cc1)n1cncn1 | -49.6
12 | CC(C)(C)c1ccc(Cn2nnc3c(=O)[nH]c(C4CCN(C(=O)Cc5cccs5)CC4)nc32)cc1 | -4.81
13 | Cc1ccc(CC(=O)Nc2nc3ccccc3s2)cc1 | -1.16
14 | O=C(COc1ccc(Br)cc1)NNC(=S)NC(=O)c1ccccc1[N+](=O)[O-] | 7.77
15 | CC(C)(C)Sc1ccc([N+](=O)[O-])cc1C(=O)Nc1ccncc1 | -22.2
16 | O=C(OCC(=O)N1CCc2ccccc21)c1ccccc1 | 15.7
17 | COc1ccc(-c2ccc(SCC(=O)Nc3nccs3)nn2)cc1OC | 27.1
18 | CC(NC(=O)C(C)N1CCN(S(=O)(=O)c2ccccc2)CC1)c1ccccc1 (centres unmarked) | -7.84
19 | Cc1ccc(-c2nc(C#N)c(NCCc3ccccn3)o2)cc1 | -0.257
20 | O=C(COC(=O)c1cccnc1Cl)NCc1ccc2c(c1)OCO2 | 11.4
21 | O=C(CCCCn1c(=O)[nH]c2ccsc2c1=O)NCCc1ccccc1 | 0.118
22 | CCn1c(SCC(=O)Nc2cccc(NC(=O)c3cccs3)c2)nnc1-c1ccncc1 | -15.1

Row | Compound | hERG current change (%, negative = inhibition) at 10uM [%]
23 | O=C1CSC(=S)N1c1cccc(Br)c1 | 8.66
24 | Nc1c(C(=O)N/N=C/c2cccnc2)oc2nc(-c3ccco3)cc(-c3ccco3)c12 | -1.33
25 | COc1cccc(-n2nc(C(=O)O)c3ccccc3c2=O)c1 | 6.72
26 | COc1ccc(OCc2nnc(SCC(=O)Nc3nnc(C4CC4)s3)n2C)cc1 | 16.3
27 | Cc1sc2c(c1C)c(=O)nc1scc(CC(=O)O)n12 | 7.48
28 | COc1cccc(OC)c1OCCCN1CCC(Cc2ccccc2)CC1.O=C(O)C(=O)O | -80.6
29 | Cc1c(Cl)cccc1NC(=S)N/N=C/c1ccccc1Cl | 12.2
30 | COc1ccc(-c2noc(CCCOc3ccc(Cl)cc3Cl)n2)cc1 | 12.9
31 | COc1ccc2c(c1)c(C(=O)O)c(C)n2CCc1ccc(OC)c(OC)c1 | 16.8
32 | CCOc1ccc(N2CC(C(=O)Nc3ccccn3)CC2=O)cc1 (centres unmarked) | -15.1
33 | O=C(CN1CCN(c2ccccn2)CC1)Nc1ccc(Br)cc1 | -57.7
34 | Fc1ccc(CN2CCCCCCC2)cc1F | -24
35 | CCOc1ncccc1C(=O)N(C)CC(=O)Nc1ccc(F)cc1 | 17.2
36 | CCN1C(=O)[C@H]2[C@@H](c3ccc(-c4ccc(F)cc4)cc3)N[C@@](Cc3ccccc3)(C(=O)OC)[C@H]2C1=O.O=C(O)C(F)(F)F | -2.53
37 | CCn1c(-c2cccnc2)n[nH]c1=S | 0.542
38 | CCc1cccc(NS(=O)(=O)c2ccc3c(c2)N(C)CCO3)c1 | -9.79
39 | CN(C1CCCCC1)S(=O)(=O)c1ccccc1 | -7.01
40 | CCN(CC)C(=O)CSc1nnc(-c2ccccc2)c(-c2ccccc2)n1 | -20.4
41 | COc1ccc(NC(=O)NCCCN2CCN(c3ccccc3F)CC2)cc1 | -63.6
42 | CC(C)NC(=O)COC(=O)c1ccc(Cl)c(S(N)(=O)=O)c1 | 18.6
43 | O=C(CN1C(=O)/C(=C/c2ccccc2)SC1=S)Nc1cccnc1 | 10.5
44 | CC1CCN(S(=O)(=O)c2ccc(C(=O)Nc3nnc(-c4ccco4)o3)cc2)CC1 | -12.4
